Assay results published in ChEMBL document CHEMBL2157995, “Cyclic tetrapeptides with thioacetate tails or intramolecular disulfide bridge as potent inhibitors of histone deacetylases” (Bioorg Med Chem Lett, 2012).

Assays:
Histone deacetylase 1 [1] = molecular target: T1, Histone deacetylase 1 (Homo sapiens, UniProt Q13547); experiment: Inhibition of HDAC1 by fluorimetric assay
Histone deacetylase 1 [2] = molecular target: T1, Histone deacetylase 1; experiment: Inhibition of HDAC1 by fluorimetric assay in presence of DTT
Histone deacetylase 4 [3] = molecular target: T2, Histone deacetylase 4 (Homo sapiens, UniProt P56524); experiment: Inhibition of HDAC4 by fluorimetric assay
Histone deacetylase 4 [4] = molecular target: T2, Histone deacetylase 4; experiment: Inhibition of HDAC4 by fluorimetric assay in presence of DTT
[5] = molecular target: T3, Protein deacetylase HDAC6 (Homo sapiens, UniProt Q9UBN7); experiment: Inhibition of HDAC6 by fluorimetric assay
T3 sequence (Q9UBN7 whole entry): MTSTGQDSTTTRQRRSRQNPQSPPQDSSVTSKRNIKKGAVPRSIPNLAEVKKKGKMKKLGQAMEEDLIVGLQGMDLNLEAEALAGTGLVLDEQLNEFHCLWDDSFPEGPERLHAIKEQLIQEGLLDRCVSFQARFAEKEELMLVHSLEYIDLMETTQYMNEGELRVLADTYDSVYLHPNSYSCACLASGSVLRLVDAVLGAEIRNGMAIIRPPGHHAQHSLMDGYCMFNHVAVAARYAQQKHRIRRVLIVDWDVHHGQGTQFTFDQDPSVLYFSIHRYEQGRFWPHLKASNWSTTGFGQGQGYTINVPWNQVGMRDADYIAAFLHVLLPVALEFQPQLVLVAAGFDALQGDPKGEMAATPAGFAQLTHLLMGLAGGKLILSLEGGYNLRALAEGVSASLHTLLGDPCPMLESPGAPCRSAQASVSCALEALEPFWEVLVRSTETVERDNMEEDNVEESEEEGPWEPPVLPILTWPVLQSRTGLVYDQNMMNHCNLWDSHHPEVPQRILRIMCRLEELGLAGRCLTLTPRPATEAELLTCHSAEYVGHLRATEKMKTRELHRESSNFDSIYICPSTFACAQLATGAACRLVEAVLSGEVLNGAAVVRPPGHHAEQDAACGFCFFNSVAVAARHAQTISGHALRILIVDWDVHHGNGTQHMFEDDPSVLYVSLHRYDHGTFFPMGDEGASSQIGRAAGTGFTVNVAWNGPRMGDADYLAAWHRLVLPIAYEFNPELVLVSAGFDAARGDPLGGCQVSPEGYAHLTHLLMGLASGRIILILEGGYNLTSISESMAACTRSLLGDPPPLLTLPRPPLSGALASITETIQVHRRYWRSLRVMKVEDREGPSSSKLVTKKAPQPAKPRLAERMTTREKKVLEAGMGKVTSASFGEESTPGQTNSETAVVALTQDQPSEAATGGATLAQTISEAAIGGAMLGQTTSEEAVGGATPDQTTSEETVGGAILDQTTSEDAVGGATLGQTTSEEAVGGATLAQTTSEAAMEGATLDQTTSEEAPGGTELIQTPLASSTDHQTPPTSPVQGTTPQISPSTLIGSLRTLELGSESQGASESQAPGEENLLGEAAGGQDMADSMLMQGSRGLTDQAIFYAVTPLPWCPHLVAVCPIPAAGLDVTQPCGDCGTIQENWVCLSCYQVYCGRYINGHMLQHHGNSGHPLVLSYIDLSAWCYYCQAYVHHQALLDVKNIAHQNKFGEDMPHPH

[6] = molecular target: T3, Protein deacetylase HDAC6; experiment: Inhibition of HDAC6 by fluorimetric assay in presence of DTT
[7] = Inhibition of HDAC assessed as induction of p21 promoter expression by cell-based assay
[8] = Inhibition of HDAC

T2 sequence (P56524 whole entry): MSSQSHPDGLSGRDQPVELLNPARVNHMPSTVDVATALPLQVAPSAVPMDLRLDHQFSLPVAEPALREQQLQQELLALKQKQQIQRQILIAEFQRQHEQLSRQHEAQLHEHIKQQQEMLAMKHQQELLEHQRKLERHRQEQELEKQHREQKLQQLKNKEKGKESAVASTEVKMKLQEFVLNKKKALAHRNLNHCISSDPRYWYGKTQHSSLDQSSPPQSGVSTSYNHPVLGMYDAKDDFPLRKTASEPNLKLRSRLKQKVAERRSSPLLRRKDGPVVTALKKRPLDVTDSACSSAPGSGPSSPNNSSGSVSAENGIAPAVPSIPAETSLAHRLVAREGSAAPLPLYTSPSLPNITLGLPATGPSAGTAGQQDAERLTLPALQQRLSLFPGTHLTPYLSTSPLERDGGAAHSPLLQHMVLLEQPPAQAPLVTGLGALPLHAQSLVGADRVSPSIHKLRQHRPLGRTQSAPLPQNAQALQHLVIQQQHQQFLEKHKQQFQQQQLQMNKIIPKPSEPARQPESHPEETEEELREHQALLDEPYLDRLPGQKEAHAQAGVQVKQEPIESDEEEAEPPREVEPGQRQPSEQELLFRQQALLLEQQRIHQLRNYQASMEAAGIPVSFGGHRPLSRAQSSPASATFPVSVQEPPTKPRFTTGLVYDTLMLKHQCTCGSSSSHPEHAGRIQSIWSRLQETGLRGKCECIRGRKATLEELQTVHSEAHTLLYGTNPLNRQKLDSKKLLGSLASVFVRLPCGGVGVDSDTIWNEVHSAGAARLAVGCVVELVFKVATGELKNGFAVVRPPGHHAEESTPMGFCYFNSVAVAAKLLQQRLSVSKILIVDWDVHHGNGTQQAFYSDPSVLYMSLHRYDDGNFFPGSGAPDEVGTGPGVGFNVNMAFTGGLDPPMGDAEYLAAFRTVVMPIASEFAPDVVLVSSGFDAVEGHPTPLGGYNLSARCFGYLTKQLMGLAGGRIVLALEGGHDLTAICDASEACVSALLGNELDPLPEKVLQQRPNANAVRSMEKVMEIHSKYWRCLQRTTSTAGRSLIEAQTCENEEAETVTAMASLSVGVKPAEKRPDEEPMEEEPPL
T1 sequence (Q13547 whole entry): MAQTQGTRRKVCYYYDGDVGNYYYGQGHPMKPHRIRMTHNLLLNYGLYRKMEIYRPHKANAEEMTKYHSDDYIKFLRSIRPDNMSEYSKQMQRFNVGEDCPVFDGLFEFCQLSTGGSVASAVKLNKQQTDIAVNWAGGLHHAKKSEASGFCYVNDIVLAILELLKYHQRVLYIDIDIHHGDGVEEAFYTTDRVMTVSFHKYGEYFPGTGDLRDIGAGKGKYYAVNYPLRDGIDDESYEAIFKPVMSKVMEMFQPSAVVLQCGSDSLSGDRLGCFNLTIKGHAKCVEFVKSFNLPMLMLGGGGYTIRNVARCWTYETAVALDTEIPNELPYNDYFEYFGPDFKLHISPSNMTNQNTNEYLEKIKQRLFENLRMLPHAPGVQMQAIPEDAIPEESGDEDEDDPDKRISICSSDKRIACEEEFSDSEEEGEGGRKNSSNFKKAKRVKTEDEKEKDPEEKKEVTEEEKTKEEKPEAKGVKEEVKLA

SMILES | IC50 (Histone deacetylase 1 [1]) | IC50 (Histone deacetylase 1 [2]) | IC50 (Histone deacetylase 4 [3]) | IC50 (Histone deacetylase 4 [4]) | IC50 [5] | IC50 [6] | EC1000 [7] | IC50 [8]
C/C=C1\NC(=O)[C@H]2CSSCC/C=C/[C@H](CC(=O)N[C@H](C(C)C)C(=O)N2)OC(=O)[C@H](C(C)C)NC1=O |  |  |  |  |  |  | 0.0031 µmol/L | 
CC(/C=C/C(=O)NO)=C\[C@@H](C)C(=O)c1ccc(N(C)C)cc1 |  |  |  |  |  |  | 0.02 µmol/L | 
CC1(C)NC(=O)[C@H](CCCCCC(=O)[C@H]2CO2)NC(=O)[C@H]2CCCN2C(=O)[C@H](Cc2ccccc2)NC1=O [CHLAMYDOCIN] |  |  |  |  |  |  |  | 0.15 nM

Further lines, with some results ahead:

IC50 (Histone deacetylase 1 [1]) | IC50 (Histone deacetylase 1 [2]) | IC50 (Histone deacetylase 4 [3]) | IC50 (Histone deacetylase 4 [4]) | IC50 [5] | IC50 [6] | SMILES | EC1000 [7] | IC50 [8]
1800 nM | 150 nM | 1200 nM | 100 nM | 12 µM | 1700 nM | CC(=O)SCCCCC[C@@H]1NC(=O)[C@H]2CCCN2C(=O)[C@H](CCCCCSC(C)=O)NC(=O)C(C)(C)NC1=O | 0.017 µmol/L | 
2400 nM | 190 nM | 990 nM | 99 nM | > 100 µM | 6500 nM | CC(=O)SCCCCC[C@@H]1NC(=O)[C@H]2CCCN2C(=O)[C@H](Cc2ccccc2)NC(=O)[C@@H](CCOCCSC(C)=O)NC1=O | 0.16 µmol/L | 
4200 nM | 210 nM | 900 nM | 120 nM | 11 µM | 2000 nM | CC(=O)SCCCCC[C@@H]1NC(=O)[C@H]2CCCN2C(=O)[C@H](CCOCCSC(C)=O)NC(=O)C(C)(C)NC1=O | 0.036 µmol/L | 
> 100000 nM | 10 nM | > 100000 nM | 5.9 nM | > 100 µM | 330 nM | O=C1N[C@@H]2CCOCCSSCCCCC[C@@H]1NC(=O)[C@H]1CCCN1C(=O)[C@H](Cc1ccccc1)NC2=O | 0.15 µmol/L | 
